Consider 22 molecules from PMC12136788.

T1: UNK ZnF1-3 (human, UniProt Q9C0B0 31-174)
T1 sequence: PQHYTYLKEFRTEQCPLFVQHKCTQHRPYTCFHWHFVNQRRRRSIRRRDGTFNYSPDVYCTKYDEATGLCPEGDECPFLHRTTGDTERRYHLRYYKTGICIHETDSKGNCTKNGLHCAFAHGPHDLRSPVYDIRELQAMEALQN

B1: chr1:150203005:150203006:-_ENSG00000143401_ENST00000314136|hu_mus|FALSE|FALSE (ssRNA)
RNA: GGGAGUUCUACAGUCCGACGAUCAAGAUUUGGACAUUUCUCUGCCAGGACUUCCAAGCCUCCAGAAAUUAUAUUGUCACUAAGUUCCAACUUCCGGAGUUUAUUCAAGCUGGGAAGCCGGGCCAAGGAACUCAACUCCACGUUCAACAGAGGAUUGAGCAUCA
B2: chr10:102306293:102306294:+_ENSG00000166135_ENST00000299163|hu_mus|motif|central (ssRNA)
RNA: GGGAGUUCUACAGUCCGACGAUCAGCCCCCUUAUACCAGAAGUUCACAGUGAUGGUAAUUCCCCCAUUUAGUAAUGACUCGGUAUGGUGCCACCAGUACAUUGGGAUGUAAAGAACAUCCCCAGGGCCAACCACUGUCUCAUACAACAGAGGAUUGAGCAUCA
B3: chr6:41757443:41757444:+_ENSG00000214736_ENST00000398881|hu_mus|hu_hu_hu_mus_False|8_8 (ssRNA)
RNA: GGGAGUUCUACAGUCCGACGAUCGAACCGUGCAGAGGCAACAUCUCAGCCGACACUGGGGGAUGGGGGGGCAGUGGGGGGGGGUUCAGGCAAGGAGAGGGAGUCAACUUCAGCUGCCACUCAGGUAGCUGCCAUCAGUCACAGCAACAGAGGAUUGAGCAUCA
B4: chr1:165619138:165619139:+_ENSG00000143198_ENST00000367886|hu_hu|FALSE|FALSE (ssRNA)
RNA: GGGAGUUCUACAGUCCGACGAUCUUUGUACUUCUUGCGGGCCUUGGAAACAUUGAUGGCUAGGUGGGCCACCAUUAUAAAGCUGGCAGCACCAGUUAGAAGCACAAAACCAUAUUCCUUAGAGAGGACAGCCAUCUUGCGUCUCAACAGAGGAUUGAGCAUCA
B5: chr8:95500983:95500984:-_ENSG00000164944_ENST00000437199|hu_hu|hu_hu_hu_mus_True|18_68 (ssRNA)
RNA: GGGAGUUCUACAGUCCGACGAUCAGAACACAUCUAUCGAGUAAAGGACCGUACAUGACGGCCUCUAACCACUGCCUCACUAACAAACUUUCCUCUCGAGCCUCCACUGCCGCUAUUUUGCACUAGCCAGGACGGUCCCAGGCCCAACAGAGGAUUGAGCAUCA
B6: chr14:89338683:89338684:+_ENSG00000165533_ENST00000346301|hu_hu|hu_hu_hu_mus_False|48_48 (ssRNA)
RNA: GGGAGUUCUACAGUCCGACGAUCGUGGUUGUUGUGGACCAGGGCCAGCCUGAAGCAUUGGUGGGCCAAGUUUGUAUCUCCGAUUCCCACAGCUACAUGCCCCAGGUUGUACCAGACAUCAGCUGCCUCUUCUUCAUUUUCAGCCAACAGAGGAUUGAGCAUCA
B7: 100006237_100006726_2590_CDS_ENSG00000158417_ENST00000289371|human|control|control (ssRNA)
RNA: GGGAGUUCUACAGUCCGACGAUCAGUGCGGGGAUCUUUAUUCUCAUAAAACAAAGCAGCAUUCAAACCCUGCUGUGCAAAUUCUACAAUAAUAGCCUUUGCUCGCUCCUCAAAUUCAUCUUUUGUAUUCUUUUUCUGCUUCUUCAACAGAGGAUUGAGCAUCA
B8: chr8:59494266:59494267:+_ENSG00000137575_ENST00000447182|hu_hu|FALSE|FALSE (ssRNA)
RNA: GGGAGUUCUACAGUCCGACGAUCUACAUUUCCAUGGUGCCGUGAAUUUUAAACCUCAGGAAUGGUGUGGUCCAUUAGGCUUUUCAUAAUGCUUGGUGCCAUCCGCUUAAUAAUAUGUUCAAAGAUAAAAGCAGGCAUGAUUGUCAACAGAGGAUUGAGCAUCA
B9: chr9:56909451:56909452:+_ENSMUSG00000032290_ENSMUST00000034832|mus_hu|motif|central (ssRNA)
RNA: GGGAGUUCUACAGUCCGACGAUCCAUAAGUGCACACACACACACACACAGAAUGACAGAAAGGACUGGAAUACACGCCCGGCUUAUAAACGUGCUUGGCACUCAGGACGAUCUCUAGAAUAUGUAACUUGGUCAAGCUCUCUGCAACAGAGGAUUGAGCAUCA
B10: chr4:88366173:88366174:-_ENSMUSG00000070923_ENSMUST00000094993|mus_hu|FALSE|FALSE (ssRNA)
RNA: GGGAGUUCUACAGUCCGACGAUCUGGAAAAACUGUGAGUGUACAGGCUCGAAUGCCACCAAGUGACUCUGGAAGAUCAAAAACUUUAUGCCACUCAUCUUUUUCUGGGUCAUAUUUCUGGACAAUUUCUACCAUACAACGAUUCAACAGAGGAUUGAGCAUCA
B11: 51514752_51517885_3253_CDS_ENSMUSG00000036391_ENSMUST00000109097|mouse|control|control (ssRNA)
RNA: GGGAGUUCUACAGUCCGACGAUCGUUGAGAGCUCCCUCAUCUGAGAGGUUGUCAACUCUGUACAAACUGGGAUGUGUUGUGAGCAUGAGGUGAACCAAUGGCUGGCUUUUCACUUGACACAUGGCAAAAAUUCGUUCAUCUAGCAACAGAGGAUUGAGCAUCA
B12: chr20:57485947:57485948:+_ENSG00000087460_ENST00000306090|hu_mus|motif|central (ssRNA)
RNA: GGGAGUUCUACAGUCCGACGAUCGGGGUUUUUCAGAAUCACUGGGGGAAAAAGGAAAGGUUGCGGUGUUGAUCAUGCCCGGUGGUGGGUGACCAACUGCUUGUACAAUUACGUUUCACUCUUAAUUAAUUGUGCUUAAGGCUGCAACAGAGGAUUGAGCAUCA
B13: chr8:104447970:104447971:+_ENSG00000164934_ENST00000297579|hu_hu|hu_hu_hu_mus_False|68_88 (ssRNA)
RNA: GGGAGUUCUACAGUCCGACGAUCAUACACUUCCCUGCUUCGGCUCUUGUCUACAGGAAAGAUUCUAAUAGAUUUAUCAAAGCUGGCAGACACAAAUUCCUUCCCAGUGGGAGAGUAGUCCACAUCAAGUACUGCAGACACGUGCAACAGAGGAUUGAGCAUCA
B14: chr12:98991669:98991670:+_ENSG00000075415_ENST00000552981|hu_hu|FALSE|FALSE (ssRNA)
RNA: GGGAGUUCUACAGUCCGACGAUCGAAUCCGUUAAAUAUGCCCUUGUACUUUUGGGGGUCCACCUGCAUACGGCAUUUCACUAAAUCCAGGGGAACCACAGCAGUGUGUGUCAGACCACAACUUAAGACCCCACCAAAGCCACACAACAGAGGAUUGAGCAUCA
B15: chr19:8913615:8913616:-_ENSMUSG00000071658_ENSMUST00000096259|mus_hu|mus_mus_mus_hu_False|58_88 (ssRNA)
RNA: GGGAGUUCUACAGUCCGACGAUCAGGGUACCAAAACCUUCUGCCUGAGAUAGGUGCCCCACCCAGUAGGGAGUUGCAGCUAAAAAUAUCUGAUGCAGAAGCAGUGACUAUACGAAAGGAGGCCCCUGGGGAGGGCCAGGCCAGCAACAGAGGAUUGAGCAUCA
B16: chr2:9570881:9570882:+_ENSG00000119203_ENST00000238112|hu_mus|hu_hu_hu_mus_False|8_48 (ssRNA)
RNA: GGGAGUUCUACAGUCCGACGAUCACUUGUCUUCUGAAGGAACCAGGGCAGGGCUCCACAGUGAUCCAAAUGGAAAUGACUGAUCAAUAGGAGAUCAAUCUCAGCUGGGUCGAUAAGGUCAAUGUAAGGAAGAGCAUCCAUUCCCAACAGAGGAUUGAGCAUCA
B17: 87797516_87810895_2362_CDS_ENSG00000008277_ENST00000398209|human|control|control (ssRNA)
RNA: GGGAGUUCUACAGUCCGACGAUCCCCAUUUUCACAGAUGUCUGAAAUAUGUUUUGUGUCUGGAAUCCUUUCACUCCAAGAAUGAGAGAGCCCAUUUGACCUCUGUUCUCGAUAGUUUUUAUAACCCCACGCAGUUAUUCCUAACAACAGAGGAUUGAGCAUCA
B18: 3061171_3062207_408_CDS_ENSG00000104964_ENST00000327141|human|control|control (ssRNA)
RNA: GGGAGUUCUACAGUCCGACGAUCUUGCAGUAGCUGAAAUUCGUCUUUGAUGCGGUCGCAGGAGUCCGAGGUGGUGAAUUUGAGUUGCUGGGGUAGGUGCGAGGAGCCCGAAUGCCUGCUUUGUGGAAACAUCAUGUCAAUCGCCAACAGAGGAUUGAGCAUCA
B19: chr16:94690093:94690094:+_ENSMUSG00000040785_ENSMUST00000117648|mus_hu|mus_mus_mus_hu_True|18_18 (ssRNA)
RNA: GGGAGUUCUACAGUCCGACGAUCGGGCUGGGAUGACGGACACACAGCCUCGAUUCCAGGGGGAAAAAGUCUUAGUCGAUACUAAUUAAAAAGUGUUAAUGAUUUUUGAAAAUCAGAUGUAGAUUAAAAAAGAUGAAAAGCAAACAACAGAGGAUUGAGCAUCA
B20: chr3:9412954:9412955:+_ENSG00000134077_ENST00000452837|hu_mus|hu_hu_hu_mus_False|8_58 (ssRNA)
RNA: GGGAGUUCUACAGUCCGACGAUCGGUUGAUAUCUCUUCUUUGAUGGCUGGAUUUUCAUAAUAGUCCAAGAUAUGUGAAUCUAAAGCGCUGCUGGCAUGCUUUUUCUUACCAUCUUUCUCAUCUGCUUUGACUUCUUGUCCACACAACAGAGGAUUGAGCAUCA
B21: chr17:60770872:60770873:+_ENSG00000011028_ENST00000303375|hu_hu|hu_hu_hu_mus_True|48_98 (ssRNA)
RNA: GGGAGUUCUACAGUCCGACGAUCUCUUUAAAAAAAAUUCCUUUUUUACAAACAAUAAUAGCACAUUUCGAGAAUCAAGAACUACAAAGAAAGGGCCGCUUUGAGUUUUUGUUCACAUCGUCCUGCACUGGGACACGGGGACUGCAACAGAGGAUUGAGCAUCA
B22: chr10:80587187:80587188:+_ENSMUSG00000035027_ENSMUST00000143517|mus_mus|FALSE|FALSE (ssRNA)
RNA: GGGAGUUCUACAGUCCGACGAUCGUGCAAGAGCAGCCAGCAGUGUGGUGGACGGCACCUGCUUGGACAACCUGGCUGGAGCAUGUGAAGCCCCACAUGGUGGCUUCCUUGGGGCAUCUGAAAAAGGAAUACUUUUGUCAUCCCCAACAGAGGAUUGAGCAUCA

The other results are listed elsewhere or left out.

The assay concerns the target T1, UNK ZnF1-3. Put plainly: nsRBNS (natural sequence RNA bind-n-seq); RBNS binding buffer (assumed for nsRBNS): 25 mM Tris pH 7.5, 150 mM KCl, 3 mM MgCl2, 0.01% Triton X-100, 500 ug/ml BSA, 20 U/ml SUPERase-In, 4 C; UNK is unkempt and MSI1 is Musashi-1; names of the RNAs are library labels; protein concentration not given here; high values mean tight binding.
B1 had a binding signal of 0.683 enrichment R.
Turning to B2, the binding signal was 1.3 enrichment R.
B3 returned a binding signal of 2.36 enrichment R.
In the case of B4 it was 1.02 enrichment R; in that of B5, 1.12 enrichment R.
The same measure for B6: 0.678 enrichment R; for B7: 0.991 enrichment R; for B8: 1.24 enrichment R.
B9: the binding signal is 1.4 enrichment R.
The same measure for B10: 0.999 enrichment R; for B11: 0.841 enrichment R; for B12: 1.09 enrichment R.
Turning to B13, the binding signal came out at 1.1 enrichment R.
The molecule B14 returned a binding signal of 1.05 enrichment R.
In the case of B15 it was 1.69 enrichment R; in that of B16, 1.1 enrichment R.
Regarding B17, the binding signal is 0.814 enrichment R.
B18: the binding signal was 1.19 enrichment R.
For the molecule B19, the binding signal is 2.36 enrichment R.
In the case of B20 it was 0.306 enrichment R; in that of B21, 1.65 enrichment R.
B22 showed a binding signal of 1.37 enrichment R.
